Viability of KB3-1 and Nalm-6 cells after 48 h of drug alone (CellTiter-Glo), 11 doses over about 4.5 log units. % of DMSO wells, lower = more cell loss; AC50 from the fitted curve, lower = more potent. No active / inactive call. Nalm-6 was screened in two runs. AC50 is listed only for well-fitted inhibitory curves. KB3-1 is a HeLa-derived carcinoma line, Nalm-6 a B-cell precursor leukaemia line.
What was measured:
KB3-1 [1] = assay: viability (% of DMSO control); higher = more viable cells
Protocol: (§1)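 Eleven-dose screen of the NCATS MIPE 3 library on cells without co-treatment; CellTiter-Glo after 48 h, as % of DMSO wells.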

Nalm-6 [2] = assay: as above
Protocol: as §1

KB3-1 [3] = assay: log AC50 of viability decrease (48 h) (log10 M); higher = less potent
Protocol: (§2)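 Eleven-dose screen of the NCATS MIPE 3 library on cells without co-treatment; CellTiter-Glo after 48 h. AC50 from the curve fit; only inhibitory curves of the better fit classes are listed.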

Nalm-6 [4] = assay: as above
Protocol: as §2

CC(C)C[C@H](NC(=O)[C@H](CCc1ccccc1)NC(=O)CN1CCOCC1)C(=O)N[C@@H](Cc1ccccc1)C(=O)N[C@@H](CC(C)C)C(=O)[C@@]1(C)CO1 [Carfilzomib]
Conditions	log AC50 of viability decrease	viability [%]
KB3-1 [1], 0.00078 µM	–	96.9
KB3-1 [1], 0.00234 µM	–	95.1
KB3-1 [1], 0.00702 µM	–	92.8
KB3-1 [1], 0.0211 µM	–	72.1
KB3-1 [1], 0.0632 µM	–	38
KB3-1 [1], 0.19 µM	–	6.99
KB3-1 [1], 0.569 µM	–	6.67
KB3-1 [1], 1.71 µM	–	6.94
KB3-1 [1], 5.12 µM	–	7.78
KB3-1 [1], 15.4 µM	–	6.72
KB3-1 [1], 46.1 µM	–	5.3
Nalm-6 [2], run: 1, 0.00078 µM	–	4.01
Nalm-6 [2], run: 1, 0.00234 µM	–	3.38
Nalm-6 [2], run: 1, 0.00702 µM	–	4.46
Nalm-6 [2], run: 1, 0.0211 µM	–	4.7
Nalm-6 [2], run: 1, 0.0632 µM	–	4.85
Nalm-6 [2], run: 1, 0.19 µM	–	5.3
Nalm-6 [2], run: 1, 0.569 µM	–	5.68
Nalm-6 [2], run: 1, 1.71 µM	–	6.03
Nalm-6 [2], run: 1, 5.12 µM	–	5.53
Nalm-6 [2], run: 1, 15.4 µM	–	5.22
Nalm-6 [2], run: 1, 46.1 µM	–	2.45
Nalm-6 [2], run: 2, 0.00078 µM	–	76.7
Nalm-6 [2], run: 2, 0.00234 µM	–	14
Nalm-6 [2], run: 2, 0.00702 µM	–	4.9
Nalm-6 [2], run: 2, 0.0211 µM	–	4.79
Nalm-6 [2], run: 2, 0.0632 µM	–	4.72
Nalm-6 [2], run: 2, 0.19 µM	–	4.54
Nalm-6 [2], run: 2, 0.569 µM	–	4.57
Nalm-6 [2], run: 2, 1.71 µM	–	4.18
Nalm-6 [2], run: 2, 5.12 µM	–	4.16
Nalm-6 [2], run: 2, 15.4 µM	–	3.52
Nalm-6 [2], run: 2, 46.1 µM	–	2.15
Nalm-6 [4], run: 2	-8.83	–

Conditions	log AC50 of viability decrease
KB3-1 [3]	-7.38

COc1ccc2c(c[n+](C)c3c4cc5c(cc4ccc23)OCO5)c1OC [Chelerythrine chloride]
Conditions	log AC50 of viability decrease	viability [%]
KB3-1 [1], 0.00078 µM	–	101
KB3-1 [1], 0.00234 µM	–	104
KB3-1 [1], 0.00702 µM	–	101
KB3-1 [1], 0.0211 µM	–	98.5
KB3-1 [1], 0.0632 µM	–	101
KB3-1 [1], 0.19 µM	–	98.1
KB3-1 [1], 0.569 µM	–	97
KB3-1 [1], 1.71 µM	–	96.2
KB3-1 [1], 5.12 µM	–	79.8
KB3-1 [1], 15.4 µM	–	13.2
KB3-1 [1], 46.1 µM	–	2.47
Nalm-6 [2], run: 1, 0.00078 µM	–	116
Nalm-6 [2], run: 1, 0.00234 µM	–	124
Nalm-6 [2], run: 1, 0.00702 µM	–	121
Nalm-6 [2], run: 1, 0.0211 µM	–	120
Nalm-6 [2], run: 1, 0.0632 µM	–	115
Nalm-6 [2], run: 1, 0.19 µM	–	117
Nalm-6 [2], run: 1, 0.569 µM	–	84
Nalm-6 [2], run: 1, 1.71 µM	–	54.3
Nalm-6 [2], run: 1, 5.12 µM	–	8.01
Nalm-6 [2], run: 1, 15.4 µM	–	6.16
Nalm-6 [2], run: 1, 46.1 µM	–	2.93
Nalm-6 [2], run: 2, 0.00078 µM	–	108
Nalm-6 [2], run: 2, 0.00234 µM	–	108
Nalm-6 [2], run: 2, 0.00702 µM	–	116
Nalm-6 [2], run: 2, 0.0211 µM	–	110
Nalm-6 [2], run: 2, 0.0632 µM	–	104
Nalm-6 [2], run: 2, 0.19 µM	–	107
Nalm-6 [2], run: 2, 0.569 µM	–	97.8
Nalm-6 [2], run: 2, 1.71 µM	–	43.2
Nalm-6 [2], run: 2, 5.12 µM	–	5.9
Nalm-6 [2], run: 2, 15.4 µM	–	5.68
Nalm-6 [2], run: 2, 46.1 µM	–	3.6
Nalm-6 [4], run: 1	-5.88	–
Nalm-6 [4], run: 2	-5.88	–

Conditions	log AC50 of viability decrease
KB3-1 [3]	-5.08

Nc1nc(Cl)nc2c1ncn2[C@H]1C[C@H](O)[C@@H](CO)O1 [Cladribine]
Conditions	log AC50 of viability decrease	viability [%]
KB3-1 [1], 0.00156 µM	–	104
KB3-1 [1], 0.00468 µM	–	106
KB3-1 [1], 0.014 µM	–	104
KB3-1 [1], 0.0421 µM	–	110
KB3-1 [1], 0.126 µM	–	103
KB3-1 [1], 0.379 µM	–	104
KB3-1 [1], 1.14 µM	–	102
KB3-1 [1], 3.41 µM	–	98.5
KB3-1 [1], 10.2 µM	–	100
KB3-1 [1], 30.7 µM	–	89.7
KB3-1 [1], 92.2 µM	–	9.18
Nalm-6 [2], run: 1, 0.00156 µM	–	125
Nalm-6 [2], run: 1, 0.00468 µM	–	121
Nalm-6 [2], run: 1, 0.014 µM	–	119
Nalm-6 [2], run: 1, 0.0421 µM	–	126
Nalm-6 [2], run: 1, 0.126 µM	–	117
Nalm-6 [2], run: 1, 0.379 µM	–	85.5
Nalm-6 [2], run: 1, 1.14 µM	–	75.9
Nalm-6 [2], run: 1, 3.41 µM	–	56.6
Nalm-6 [2], run: 1, 10.2 µM	–	48.7
Nalm-6 [2], run: 1, 30.7 µM	–	36.5
Nalm-6 [2], run: 1, 92.2 µM	–	3.08
Nalm-6 [2], run: 2, 0.00156 µM	–	113
Nalm-6 [2], run: 2, 0.00468 µM	–	108
Nalm-6 [2], run: 2, 0.014 µM	–	106
Nalm-6 [2], run: 2, 0.0421 µM	–	114
Nalm-6 [2], run: 2, 0.126 µM	–	95.8
Nalm-6 [2], run: 2, 0.379 µM	–	85.1
Nalm-6 [2], run: 2, 1.14 µM	–	55.3
Nalm-6 [2], run: 2, 3.41 µM	–	59.2
Nalm-6 [2], run: 2, 10.2 µM	–	56.5
Nalm-6 [2], run: 2, 30.7 µM	–	42.9
Nalm-6 [2], run: 2, 92.2 µM	–	3.16
Nalm-6 [4], run: 1	-5.42	–
Nalm-6 [4], run: 2	-5.02	–

Conditions	log AC50 of viability decrease
KB3-1 [3]	-4.32

C[C@@H]1C[C@H]2[C@@H]3\C=C(C)/C4=C/C5=C(C[C@]4(C)[C@H]3[C@@H](O)C[C@]2(C)[C@@]1(O)C(=O)COC(C)=O)C=N[N]5C6=CC=CC=C6 [Cortivazol]
Conditions	log AC50 of viability decrease	viability [%]
KB3-1 [1], 0.00078 µM	–	105
KB3-1 [1], 0.00234 µM	–	104
KB3-1 [1], 0.00702 µM	–	104
KB3-1 [1], 0.0211 µM	–	111
KB3-1 [1], 0.0632 µM	–	101
KB3-1 [1], 0.19 µM	–	99.5
KB3-1 [1], 0.569 µM	–	103
KB3-1 [1], 1.71 µM	–	105
KB3-1 [1], 5.12 µM	–	92.5
KB3-1 [1], 15.4 µM	–	76.2
KB3-1 [1], 46.1 µM	–	1.82
Nalm-6 [2], run: 1, 0.00078 µM	–	55.1
Nalm-6 [2], run: 1, 0.00234 µM	–	45
Nalm-6 [2], run: 1, 0.00702 µM	–	43.1
Nalm-6 [2], run: 1, 0.0211 µM	–	40.1
Nalm-6 [2], run: 1, 0.0632 µM	–	41.5
Nalm-6 [2], run: 1, 0.19 µM	–	40.1
Nalm-6 [2], run: 1, 0.569 µM	–	42.9
Nalm-6 [2], run: 1, 1.71 µM	–	27.1
Nalm-6 [2], run: 1, 5.12 µM	–	8.8
Nalm-6 [2], run: 1, 15.4 µM	–	6.31
Nalm-6 [2], run: 1, 46.1 µM	–	0.567
Nalm-6 [2], run: 2, 0.00078 µM	–	51.3
Nalm-6 [2], run: 2, 0.00234 µM	–	44.5
Nalm-6 [2], run: 2, 0.00702 µM	–	40.5
Nalm-6 [2], run: 2, 0.0211 µM	–	40.8
Nalm-6 [2], run: 2, 0.0632 µM	–	38.1
Nalm-6 [2], run: 2, 0.19 µM	–	40
Nalm-6 [2], run: 2, 0.569 µM	–	38
Nalm-6 [2], run: 2, 1.71 µM	–	13.3
Nalm-6 [2], run: 2, 5.12 µM	–	4.39
Nalm-6 [2], run: 2, 15.4 µM	–	3.74
Nalm-6 [2], run: 2, 46.1 µM	–	-0.0303
Nalm-6 [4], run: 1	-5.43	–
Nalm-6 [4], run: 2	-5.88	–

Conditions	log AC50 of viability decrease
KB3-1 [3]	-4.58

Reference: the supplement of paper PMC4996465
